Assay results from PubChem BioAssay AID1508623 (National Center for Advancing Translational Sciences (NCATS), 2021).
In all, about 48,000 compounds went through this assay and about 450 (0.94%) were called active. Not shown: some 19% with an inconclusive outcome. The call rests on the fitted dose curve; in most records, active means well fitted inhibition curve with a large enough effect; inconclusive means small, poorly fitted or top-dose-only effect; inactive means no such curve, though single readings can be large or run the other way. This is one part of the list.

Experiment: Primary qHTS for Identification of Small Molecule Inhibitors of Huntingtin Promoter Activity; further: nearly all actives have a fitted effect of over 50% in size
Conditions: HEK293 HTT promoter firefly luciferase reporter (activity 0% = vehicle and -100% = no light), 24 h; series mostly up to 57.5 µM; activity change, negative = inhibition: at the top concentration
Method in brief: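 HEK293 luciferase promoter-reporter cells (2,500/well) plated 24 h, then compounds added at up to 57.5 uM final for 24 h at 37 °C. Firefly luminescence by Dual-Glo, normalized to vehicle (0%) and zero RLU (-100%).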
Potency means the concentration at half of the fitted maximal effect.

Activity change, negative = inhibition, inactive:
Cc1oc2ncn(CC(C)C)c(=O)c2c1C(=O)NCCCN1CCC(C)CC1 12.9%
O=C(COc1ccccc1F)OCc1cc(=O)n2nc(C3CC3)sc2n1 -14.9%
COc1ccc(-c2cc(C(=O)Oc3cccc(C)c3)c3cc(C)ccc3n2)cc1 -5.1%
Cc1ccc(NC(=O)CN2C(=O)CCc3cc(S(=O)(=O)N4CCCCC4)ccc32)cc1C -13.6%
Cc1cc(C)cc(-n2c(C)nc3cc(C(=O)NCc4ccccc4Cl)ccc32)c1 -0.854%
COc1cccc(C(=O)Nc2ccc(-n3nncc3-c3ccccc3)cc2)c1 -13.8%
CC[C@@H](C)[C@@H](C(=O)Nc1ccc(C)cc1)N1Cc2ccccc2C1=O -24.4%
CCCn1c(=O)c2c(nc3n2CCN3c2ccc(C)cc2)n(C)c1=O -0.992%
Cc1ccc(CN(C(=O)COc2ccc(Cl)cc2C)C2CCS(=O)(=O)C2)o1 (stereo not given) -23.1%
CSc1ccc(C2c3c(oc4cc(C)cc(C)c4c3=O)C(=O)N2CCO)cc1 (stereo not given) 6.85%
Cc1nc2sc(C(=O)N(C)c3ccccc3)c(NC(=O)c3ccccc3Cl)c2c(C)c1C 15.9%
CCOc1ccc(NC(=O)N(Cc2c[nH]c3ccccc23)C2CCCCCC2)cc1 48.1%
COc1ccc(C2C(C(=O)Nc3ccccc3OC)=C(C)Nc3c(C(=O)Nc4ccccc4)cnn32)c(OC)c1 (stereo not given) -3.81%
CC(C)CCNC(=O)CCn1c(=O)c2cccn2c2cccnc21 2.59%
COc1cn(CC(=O)Nc2ccccc2)c(CN2CCCCC2)cc1=O -7.4%
CC(=O)c1cccc(NC(=O)C(C)n2c(=O)cc(-c3ccccc3)c3c(C)nn(C)c32)c1 (stereo not given) -6.28%
COc1cccc(CNC(=O)c2ccc(NC(=O)N3CCCCc4ccccc43)cc2)c1OC -15.5%
CCOc1ccc(-c2cc(-c3nc(-c4ccc(C)cc4)no3)[nH]n2)cc1 -15%
CCN1C(=O)c2ccccc2S(=O)(=O)c2ccc(C(=O)NCc3ccccc3Cl)cc21 -15.2%
COC(=O)CSc1ncc2c(n1)-c1ccccc1N(Cc1cccc(F)c1)S2(=O)=O -17.4%
O=C(O)CCCCCC(=O)NN=C1CCCC1 -0.399%
CCOC(=O)C1CCN(C(=O)CSc2n[nH]c(-c3ccc(F)cc3)n2)CC1 -3.31%
COc1cccc(CNC(=O)c2c(C)oc3nc(C)nc(N4CCOCC4)c23)c1 3.75%
CCc1cccc(C)c1NS(=O)(=O)c1c(C)nc2sccn2c1=O -9.13%
O=C(Cn1c(=O)oc2cc(S(=O)(=O)N3CCCC3)ccc21)NCc1ccc(F)cc1 -30.3%
Cc1cccc(C(=O)Nc2ccc(OCc3cc(=O)n4ccsc4n3)cc2)c1 3.04%
CCN(CC)S(=O)(=O)c1ccc2c(c1)N(CC(=O)N1CCN(c3ccc(Cl)cc3)CC1)C(=O)CO2 -14.2%
O=C(NC1CCCCCC1)C1c2ccccc2C(=O)N1Cc1ccccc1Cl (stereo not given) 0.581%
O=C(O)[C@@H]1[C@H]2C[C@H]3c4[nH]c5ccccc5c4CCN3C[C@@H]2CC[C@@H]1O 2.55%
CCN1CCN(C(=O)c2ccc3c(c2)N(Cc2ccccc2F)C(=O)c2ccccc2S3=O)CC1 (stereo not given) -4%
Cc1ccc(-n2c3c(cc(C(=O)Nc4cccc(Cl)c4)c2=O)C(=O)CC(C)(C)C3)cc1 4.15%
Cc1ccc(Cl)cc1N1CCN(C(=O)CCCCCn2c(=O)[nH]c3ccccc3c2=O)CC1 -2.75%
CCOc1ccccc1-c1nc(SCC(=O)c2ccc(OC)c(Br)c2)n[nH]1 -6.7%
CC(C)OC(=O)c1cccnc1SCC(=O)Nc1ccc(C(F)(F)F)cc1Cl -5.98%
O=c1c2sccc2n(Cc2cc(=O)n3ccccc3n2)c(=O)n1-c1cccc(C(F)(F)F)c1 -8.44%
Cc1cnc(=O)[nH]c1SCC(=O)Nc1nc2ccccc2s1 27.6%
Cc1ccc2oc(-c3cccc(NC(=O)c4sc5c([N+](=O)[O-])cccc5c4Cl)c3)nc2c1 -8.51%
CCc1ccc(C(=O)NC(Cc2c[nH]c3ccccc23)C(=O)OCC(=O)c2ccc(Br)cc2)cc1 (stereo not given) -6.11%
Cc1cc2c(cc3c(SCC(=O)Nc4cccc(Cl)c4C)nnc(C)n32)o1 -3.41%
CCOc1ccc(CCNC(=O)c2c(C)oc3ncn(C)c(=O)c23)cc1 5.74%
CC(C)CCOc1ccccc1Cn1c(=O)sc2ccccc21 -7.09%
O=C(NCCCN1CCOCC1)c1ccc(Cl)cc1 13.4%
CCc1ccc(-n2c(=O)c3c(C)c(C(=O)N(C)C)sc3n(Cc3ccccc3F)c2=O)cc1 -9.7%
Cc1oc(-c2ccccc2Cl)nc1CS(=O)CC(=O)NCc1ccccc1Cl (stereo not given) -3.13%
COc1ccc(NC(=O)CN2CCN(CC(=O)Nc3ccccc3F)CC2)cc1OC -22.2%
O=S(=O)(c1ccc(F)cc1)N(Cc1nc(-c2ccccc2)no1)C1CCCCC1 -16.7%
O=C(COc1ccc(F)cc1)Nc1ccc(C(=O)OCc2cc(=O)n3nc(C4CC4)sc3n2)cc1 -4.46%
CCOc1ccc(NC(=O)N2CCC(c3ccc(C)cc3)C2)cc1 (stereo not given) 21.1%
Cc1ccc(CN(Cc2cccn2-c2nnc(N3CCCC3=O)s2)C(=O)Nc2ccc(F)cc2)cc1 -11.3%

Potency, active:
Cc1cc(C(=O)C(=O)Nc2nnc(C(C)C)s2)c(C)n1-c1ccccc1 6.31 µM
